In all, about 33,000 sequences were measured (“E-score (-0.5 to 0.5)”: median about -0.041, highest 2% from about 0.37 on). This is one part of the list.
molecular target: T1, Ecm22 (UniProt Q05958); assay: PBM E-score (8-mer binding enrichment) (E-score (-0.5 to 0.5)); higher = stronger / more preferred TF binding; most listed sequences are background and not binding sites; settings: protein concentration: 200 nM; construct: GST-full length
T1 sequence: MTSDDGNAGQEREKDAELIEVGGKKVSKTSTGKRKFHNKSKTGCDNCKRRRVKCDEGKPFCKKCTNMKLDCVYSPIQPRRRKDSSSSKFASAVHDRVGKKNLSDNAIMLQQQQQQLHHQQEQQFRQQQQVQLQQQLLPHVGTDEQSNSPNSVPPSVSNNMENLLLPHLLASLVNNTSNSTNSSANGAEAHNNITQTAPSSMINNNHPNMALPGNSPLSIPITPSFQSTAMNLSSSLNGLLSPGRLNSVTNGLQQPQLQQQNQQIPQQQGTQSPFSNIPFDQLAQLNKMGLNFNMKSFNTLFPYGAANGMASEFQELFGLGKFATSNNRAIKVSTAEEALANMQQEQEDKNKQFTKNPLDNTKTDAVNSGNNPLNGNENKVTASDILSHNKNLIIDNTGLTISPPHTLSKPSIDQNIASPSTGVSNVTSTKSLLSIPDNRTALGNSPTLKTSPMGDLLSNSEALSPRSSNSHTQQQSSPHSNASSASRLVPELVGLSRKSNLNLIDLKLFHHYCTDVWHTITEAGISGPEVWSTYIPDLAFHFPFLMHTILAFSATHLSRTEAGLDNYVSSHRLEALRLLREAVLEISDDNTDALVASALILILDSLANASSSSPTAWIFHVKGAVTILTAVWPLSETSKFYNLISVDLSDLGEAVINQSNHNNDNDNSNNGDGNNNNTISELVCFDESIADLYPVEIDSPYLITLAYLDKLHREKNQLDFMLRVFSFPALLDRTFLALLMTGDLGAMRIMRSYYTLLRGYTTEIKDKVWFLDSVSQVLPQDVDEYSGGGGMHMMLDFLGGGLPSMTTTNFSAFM
In short: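 PURExpress in vitro transcription/translation supplied GST-tagged yeast transcription factors, either full-length or DNA-binding domain. Applied at about 100-200 nM to universal all-10-mer Agilent arrays double-stranded by primer extension, the bound protein was detected with fluorescent anti-GST. E-scores, modified Wilcoxon-Mann-Whitney statistics, were given by the Universal PBM Analysis Suite to ungapped eight-base words pooled with their reverse complements after masliner normalisation.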

Sequence | PBM E-score
GGGCCTCA | -0.197
ACTTTATC | -0.0438
AAGACCCG | -0.094
AATAGGCT | -0.109
GGGATAAC | -0.108
CCGAGCGA | 0.237
CAAATGCC | -0.27
CAGCGCCC | -0.294
CTAATTGC | 0.101
GGGTCTCA | -0.376
GTCGGCAA | 0.132
CCTGTTGC | -0.189
AAGCCTCA | -0.23
TCTCCTAA | -0.203
ACAACTAG | -0.0801
GGTTCCAA | -0.0872
AACAGCGC | -0.0228
ACGTAAAC | 0.28
TACTTCGA | 0.168
AAACCGTC | 0.0185
AATGCTAT | -0.0459
GGGCTAGA | -0.086
ACTCCTCC | -0.161
TCGAAAAA | 0.253
AGGCATGA | -0.294

Sequence | PBM E-score
GATCTCCA | -0.188
ACTCTTAG | -0.239
GATATCGA | 0.0707
ATCCGCCA | -0.0437
GAACCAAC | 0.0239
ACGTTCAT | 0.157
AAGAATCT | -0.234
GGGCCAGA | -0.231
GACACCCA | -0.171
GGCTTCCC | -0.255
AGGTCGAT | 0.0332
GATACGAC | 0.464
GAACAGGA | -0.145
ATGTCTAA | -0.194
AGTGATAC | 0.129
CAAGTTGC | 0.0504
CCTCCACA | -0.147
GTGCCTTA | -0.241
GTTTAACA | 0.205
AGTACCTC | -0.19
CAAACGCC | -0.0203
ACGTTAGA | 0.0552
CAGACGAC | 0.05
AAGTCACA | -0.196
CGCCGTTA | 0.196

Sequence | PBM E-score
GGTTCCCA | -0.173
GGAATGAC | -0.162
ATTGGAGC | -0.141
AAATCAGT | 0.0103
GTCACGAC | 0.0452
ATAACCAC | 0.0979
CCCAACAG | -0.172
ACCGCAGG | -0.0892
AACTTCTT | 0.0135
CATGTGAC | -0.129
AACATAGA | -0.137
ACGCGAAT | 0.246
GGACTAGA | -0.2
CGCAAGCA | -0.0331
CGCCCTCA | -0.154
ACATGTAT | 0.0328
CTTAACCA | -0.201
ATGAAGGC | -0.102
AGATGACC | -0.239
TAAACGAA | 0.488
TATTAACA | 0.171
AGAAGTGG | -0.134
CACGATGG | 0.0647
GCACCTAA | -0.0119
AGTCGGTG | -0.16

Sequence | PBM E-score
AATGCGAG | 0.275
ACCATTAT | -0.138
CGCGTCGC | 0.168
AAGGTAAA | 0.117
TGACATAA | -0.113
AACAATCT | -0.127
ACAGGCTG | -0.306
ACGGGAAA | 0.116
GACAAGGC | -0.084
AATAACTG | 0.0815
GCTCGAGC | 0.0152
CAGACTGA | 0.00847
CTATTTCC | 0.0563
CACACCCC | -0.25
ACATACGT | 0.177
ATAGGTCA | 0.135
AGGGGGTG | -0.208
CGCCTGAA | 0.118
ACAATGAC | -0.162
GAATTTAC | 0.207
ACCCAAAA | 0.0343
GGTACGTA | 0.319
CAAGGCAA | -0.203
TATATACA | 0.101
ACCCGGCG | -0.0133

Sequence | PBM E-score
AGCAGACT | -0.0102
CCATATCC | -0.0494
AGGGCGAT | -0.0025
GCCTTCGC | 0.0296
CGTGCGAA | 0.276
TAATGAAA | 0.0326
TACTTACA | 0.101
CAGGCGAG | -0.207
AGGACATC | -0.0323
CGCGCAGA | 0.197
ATGGTGGG | -0.251
GTTCAAGA | 0.154
ATCGGAAA | 0.127
GCCTACCC | -0.183
CCGCCGTC | -0.141
GCCCTACC | -0.0928
ATGGAGCA | -0.12
AACTCCTC | 0.00963
GCGGCATA | 0.029
CGACTTGA | 0.0591
TGACAGCA | 0.0178
CACACTAG | -0.0563
ACGACGTG | 0.372
ACGAATGA | 0.298
GGCTACAA | 0.042

Sequence | PBM E-score
AATCGGAC | 0.0723
CCACTGTA | -0.00352
GGCGTGAA | 0.0712
ACTGAGCG | -0.0588
AAGTCCAC | -0.278
GCGTATCA | 0.114
CAGCGGCA | -0.168
ACCAGTGA | -0.129
GAATTGAA | -0.0812
CTAGCCTC | -0.0983
AGCGGCTG | -0.159
GAAAGGGA | -0.0539
GCACTAAC | 0.0508
AGCACGAC | -0.012
AATTTTGT | 0.0242
ATCCTGGC | -0.0963
AATTCAGC | -0.0163
CACAGTCC | -0.24
CTGTGCTC | 0.062
GAACTCAA | -0.00037
AGTATGCG | 0.2
CCCCGCCA | 0.0635
AGGCGTCG | 0.165
CAGTTATG | -0.216
AGACTTAT | -0.104

Sequence | PBM E-score
GCACCCGA | 0.191
AAATAATA | 0.104
AACGTGCT | -0.0499
AGCGGTTG | -0.0954
ACCAACGG | -0.0668
CGGCAGAC | -0.0265
ATGGTGCC | -0.132
AGCAGGGG | -0.223
GGACCCGA | 0.136
GTGACAAA | -0.018
TAAATACA | 0.077
TCGTGAAA | 0.247
TGTGCTAA | -0.0625
GGACTTTA | -0.123
AACTCTCG | 0.145
AACCTTAG | -0.292
CCGGCGCG | 0.021
ATCATCAG | -0.086
TATGTAAA | 0.0988
AGTATCAA | -0.0773
CGGTTGGA | -0.079
AACAAGCA | -0.104

From the supplement of paper PMC3334620
